Laboratory results taken from PMC4336329 (PLoS ONE, 2015).
The campaign covered roughly 310,000 compounds. About 14,000 (4.5%) showed an effect of 50% or more. Effects have a minus sign here. Some of the results follow.

target: human ether-à-go-go-related gene (hERG) potassium channel (human, UniProt Q12809); experiment: primary screen, population patch clamp on CHO cells stably expressing hERG
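Also: peak tail current of the secondary pulse compared with the same well before compound.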

Sequence of human ether-à-go-go-related gene (hERG) potassium channel (Q12809 whole entry, looked up): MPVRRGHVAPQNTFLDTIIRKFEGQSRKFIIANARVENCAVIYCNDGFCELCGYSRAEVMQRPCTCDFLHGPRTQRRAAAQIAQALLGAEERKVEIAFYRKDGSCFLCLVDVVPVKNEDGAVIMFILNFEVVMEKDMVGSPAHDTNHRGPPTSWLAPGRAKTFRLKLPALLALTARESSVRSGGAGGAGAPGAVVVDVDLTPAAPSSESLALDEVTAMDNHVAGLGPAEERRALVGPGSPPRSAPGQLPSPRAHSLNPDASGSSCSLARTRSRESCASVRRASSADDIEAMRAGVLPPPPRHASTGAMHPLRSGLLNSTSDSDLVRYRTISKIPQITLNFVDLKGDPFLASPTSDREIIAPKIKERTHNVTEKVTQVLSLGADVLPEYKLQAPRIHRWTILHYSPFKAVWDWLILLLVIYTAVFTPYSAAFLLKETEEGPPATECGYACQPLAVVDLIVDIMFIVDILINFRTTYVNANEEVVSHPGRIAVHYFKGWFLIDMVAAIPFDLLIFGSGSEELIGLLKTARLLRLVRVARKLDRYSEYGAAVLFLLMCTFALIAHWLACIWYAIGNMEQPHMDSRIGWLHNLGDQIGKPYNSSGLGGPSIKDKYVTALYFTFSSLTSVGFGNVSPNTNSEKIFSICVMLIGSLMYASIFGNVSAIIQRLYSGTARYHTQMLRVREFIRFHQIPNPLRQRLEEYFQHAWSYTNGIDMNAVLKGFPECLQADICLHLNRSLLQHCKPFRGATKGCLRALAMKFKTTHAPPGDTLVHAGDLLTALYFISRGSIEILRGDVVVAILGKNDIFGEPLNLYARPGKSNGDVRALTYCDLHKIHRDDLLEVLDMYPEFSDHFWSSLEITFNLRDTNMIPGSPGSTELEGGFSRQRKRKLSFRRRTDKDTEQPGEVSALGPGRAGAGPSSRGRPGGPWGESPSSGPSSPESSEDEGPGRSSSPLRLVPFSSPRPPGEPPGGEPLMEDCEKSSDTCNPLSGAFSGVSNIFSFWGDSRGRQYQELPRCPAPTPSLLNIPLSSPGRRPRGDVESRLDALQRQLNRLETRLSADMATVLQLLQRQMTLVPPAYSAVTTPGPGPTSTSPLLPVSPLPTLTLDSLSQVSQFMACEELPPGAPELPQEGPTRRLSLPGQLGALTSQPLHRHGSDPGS

Compound	hERG current change (%, negative = inhibition) at 10uM [%]
CCC(C)C(NC(=O)[C@@H](NC(=O)c1ccccc1F)C(C)C)C(=O)OC (stereo partly shown)	6.15
N#Cc1c(/N=C/c2ccccc2)oc(-c2ccccc2)c1-c1ccccc1	15.3
CCOc1ccccc1N1CCN(C(=O)CCCN2C(=O)c3cccc4cccc(c34)C2=O)CC1	-8.72
O=C1c2ccccc2NC2(CCCCC2)N1N=C1CCCCC1	11
Cc1ccc(CN2CCN(c3ccccc3Cl)CC2)o1	-12.5
Cn1c(SCC(=O)Nc2ccc(Cl)cn2)nnc1C1CC1	-3.25
CCOC(=O)c1ccc(Nc2ncnc3ccccc23)cc1.Cl	14.5
Cc1occc1C(=O)NNC(=O)c1ccc(S(=O)(=O)N(C)C)cc1	9.03
Cc1ccc(-c2nc3cccnc3o2)cc1NC(=O)COc1ccc(Cl)cc1C	5.9
O=C(c1ccc(CNS(=O)(=O)c2cccc(C(F)(F)F)c2)cc1)N1CCOCC1	-6.38
CCOCC(=O)NC1CCSC1=O (stereo not shown)	24.1
CCc1ccc(NC(=O)NCC2CCN(Cc3cccc(Cl)c3)CC2)cc1	-82.9
O=C(NC(=S)Nc1ccc2c(c1)OCCO2)c1cccc(Br)c1	-1.58
O=C(O)C(=O)O.O=C(c1cccs1)N1CCN(CCCc2ccccc2)CC1	-64.5
CCN1C(=O)c2ccccc2S(=O)c2ccc(C(=O)NCc3ccccn3)cc21 (stereo not shown)	0.339
Cn1c(=O)n(C)c2cc(NC(=O)Cc3ccccc3[N+](=O)[O-])ccc21	13.9
Cc1ccc(/C=C2/N=C(c3ccccc3)NNC2=O)cc1	-14.4
COc1ccc(/C=C/c2c([N+](=O)[O-])c(=O)n(C)c(=O)n2C)c(OC)c1OC	13
Cc1nc(N2CCCCC2)sc1C(=O)c1cccc([N+](=O)[O-])c1	-24.4
O=C(/C=C/Nc1cccc(F)c1)c1ccco1	-0.758
Clc1ccccc1-c1nc(-c2ccccc2)n[nH]1	-5.74
CCOC(=O)C1CCCN(C(=O)c2ccc3oc(CCc4ccccc4)nc3c2)C1 (stereo not shown)	-27.7
COc1ccccc1-c1nc(C(F)(F)F)c(OC)o1	-7.54
Cc1ccccc1N1CC(C(=O)NC2CCCC2)CC1=O (stereo not shown)	10.3
Cc1cccc(-c2nnc(NC(=O)c3ccc(N4C(=O)CCC4=O)cc3)s2)c1	9.06
